# Laboratory results: the supplement of paper PMC3334620
# In all, about 33,000 sequences were measured (“E-score (-0.5 to 0.5)”: median about -0.021, highest 2% from about 0.32 on). Some of the results follow.
# Target: T1, Zap1 (UniProt P47043)
# T1 sequence: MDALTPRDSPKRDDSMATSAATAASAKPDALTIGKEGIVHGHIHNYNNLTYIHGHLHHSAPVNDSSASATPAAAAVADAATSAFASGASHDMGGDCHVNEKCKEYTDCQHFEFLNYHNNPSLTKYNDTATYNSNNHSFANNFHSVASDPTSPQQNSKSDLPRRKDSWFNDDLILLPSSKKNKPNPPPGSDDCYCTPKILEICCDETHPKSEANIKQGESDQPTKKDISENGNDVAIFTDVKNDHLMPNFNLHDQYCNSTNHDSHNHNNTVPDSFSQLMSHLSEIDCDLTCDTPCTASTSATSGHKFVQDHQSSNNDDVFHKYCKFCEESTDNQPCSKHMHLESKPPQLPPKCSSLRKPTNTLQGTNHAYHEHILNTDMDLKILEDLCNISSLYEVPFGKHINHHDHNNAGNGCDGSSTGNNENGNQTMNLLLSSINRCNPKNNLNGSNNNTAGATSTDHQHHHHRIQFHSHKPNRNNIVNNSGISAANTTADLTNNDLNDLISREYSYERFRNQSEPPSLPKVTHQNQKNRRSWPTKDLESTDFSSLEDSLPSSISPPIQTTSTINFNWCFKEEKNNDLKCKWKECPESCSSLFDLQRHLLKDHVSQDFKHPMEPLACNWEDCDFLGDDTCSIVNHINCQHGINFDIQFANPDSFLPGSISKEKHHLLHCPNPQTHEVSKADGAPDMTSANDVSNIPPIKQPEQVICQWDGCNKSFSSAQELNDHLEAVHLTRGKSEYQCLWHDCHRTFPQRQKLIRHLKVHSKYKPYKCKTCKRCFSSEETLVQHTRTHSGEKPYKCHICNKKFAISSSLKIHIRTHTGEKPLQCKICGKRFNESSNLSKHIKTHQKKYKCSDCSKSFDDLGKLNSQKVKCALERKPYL
# Assay: PBM E-score (8-mer binding enrichment) (E-score (-0.5 to 0.5)); higher = stronger / more preferred TF binding; most listed sequences are background and not binding sites
# Conditions: protein concentration: 200 nM; construct: GST-full length
# Summary of the method: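 Each ungapped eight-base word and its reverse complement, pooled, received an E-score from the Universal PBM Analysis Suite. Underlying scans, normalised with masliner, recorded fluorescent anti-GST bound to GST-tagged yeast transcription factors. These were applied at about 100-200 nM to universal all-10-mer Agilent arrays double-stranded by primer extension.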
row,Sequence,PBM E-score
1,ACATTGCC,-0.177
2,CGGGAGAG,-0.165
3,CTTGACGA,-0.214
4,GATACCAA,0.118
5,AATAATAG,-0.044
6,CTCGCAAC,0.137
7,GCCTACGC,-0.221
8,CATCGCGC,-0.0176
9,AAAGTATG,-0.0746
10,ACGTGGTA,-0.0169
11,CAAAAAAG,0.275
12,ATTAATCC,-0.0662
13,CCCACGCA,0.0623
14,TCTGCTAA,-0.16
15,ACGTGGTC,0.0404
16,AGTTAATG,-0.0321
17,ACTGGATA,0.00183
18,CTTGCTAC,0.0655
19,ACACTTAA,0.0631
20,AACCCCGT,0.277
21,ATGTAGGG,-0.0619
22,CCGACGTC,-0.296
23,TAGAGATA,0.111
24,CTATTCTC,-0.162
25,CATACTAA,0.218

row,Sequence,PBM E-score
1,CTGGGCAC,-0.158
2,ACTGATAA,0.127
3,ACTCCTCT,-0.246
4,AAGGAAAT,0.0204
5,CGGCTTAC,-0.12
6,ATCTGTCC,-0.318
7,GTGCCGAA,0.0261
8,AGGCAGGA,-0.3
9,CGCAGCAG,-0.0685
10,AAGAACAG,0.147
11,CGAGAGTC,-0.103
12,AGTTGTAC,0.146
13,CAAAGAAG,0.0538
14,CCATGGAG,0.115
15,GACAGCAC,0.0337
16,AGCGGGTC,-0.148
17,GACAGAAA,0.17
18,CTCACGAA,-0.00515
19,GCACATTA,-0.0876
20,AACTCGCA,-0.0412
21,AGGAGGGG,-0.0628
22,AAATTGAA,0.0405
23,ATATGGGA,0.0061
24,CCTAGCCA,-0.0693
25,AAGAGAAC,0.0481

row,Sequence,PBM E-score
1,ACCACTAA,0.281
2,ACGACAAT,-0.00907
3,AAGGTGGT,0.28
4,CGAACAAG,0.00111
5,ATTAGAGA,-0.0494
6,GCATGATA,-0.0633
7,CCAGTCAG,-0.133
8,AGTGTGTC,-0.147
9,ACACCCGT,0.201
10,GTCCGAAA,0.187
11,CGCAAGGA,-0.00607
12,GGGCTATA,-0.087
13,CGCGGAGC,-0.244
14,GGTTTGAA,0.201
15,CATAGTGC,-0.16
16,AAGTTAGC,0.031
17,ATATTCCG,0.0776
18,TGTGCACA,-0.0575
19,ATACGACG,-0.0416
20,CAACGTAG,-0.0349
21,CCGTTAGA,0.07
22,GCAGACGA,-0.192
23,GCGGCACC,0.0425
24,CTGACCCA,-0.11
25,CGCTCTTA,-0.0573

row,Sequence,PBM E-score
1,CCCGTTGC,-0.154
2,GCTGCGAC,-0.141
3,GCAAGTTA,0.0383
4,CCTATTTA,0.137
5,ACCGCACT,0.109
6,AGGAACCC,0.104
7,AATAACAG,0.118
8,CAACAGGA,-0.148
9,CTACGGGA,-0.137
10,ATACCCGC,0.314
11,AGTCGAAG,-0.26
12,ACCTCGCT,0.216
13,GTTCGAAC,0.0684
14,ATGCTCTC,-0.152
15,ACGTGGCG,-0.159
16,CTTAAGGA,0.119
17,TATATAGA,0.146
18,AGGTGCGG,-0.111
19,AAACATTT,0.148
20,AAGACAGA,0.0381
21,ATCGAAAG,0.134
22,GGTGCACA,-0.187
23,AGTATGAG,0.105
24,AGGCCGCG,0.169
25,CAAACTCG,0.0533

row,Sequence,PBM E-score
1,ATTCGCAC,-0.0943
2,CGTTAGAC,-0.0653
3,GATAGAGA,-0.186
4,ACCGGAAT,0.051
5,GAACGGAA,-0.0451
6,CAAATGAG,0.0449
7,AAAACGAA,0.0788
8,AGCCCGTC,-0.312
9,CGGATGCC,-0.0188
10,AATATTGG,0.097
11,AATGGTTG,0.254
12,GCCACCCC,-0.133
13,ACAGACGT,-0.0189
14,CATTGATA,-0.00204
15,TGAAGTCA,-0.193
16,CACATATA,0.0322
17,CCCTGGAC,0.0556
18,GCCTATTA,-0.0352
19,CACGACAG,-0.072
20,CATGAACA,0.00617
21,AATTCTCC,0.039
22,CCCTGTCG,0.0766
23,ATCAGGTA,0.276
24,AGCCTAAA,0.232
25,ATAGTGAG,-0.19

row,Sequence,PBM E-score
1,AAGTGGAC,-0.0733
2,CACATGCA,0.16
3,ACATGCGC,-0.044
4,AAGGGGAC,0.0133
5,TGCTATAA,-0.0162
6,AATAAATT,0.164
7,ACGCGCTC,-0.174
8,CACCATGG,-0.124
9,GTAATCTA,0.233
10,ATCTACAA,-0.0277
11,AAAAGATC,-0.0403
12,TGAAGTAA,-0.0217
13,ACTTAACC,0.287
14,GAGCTCCC,-0.147
15,ATCAGGAG,0.048
16,AGCGCCAC,-0.148
17,CTTATTCC,-0.148
18,AGCTTCAC,0.019
19,CGGCGACC,-0.0355
20,TACCTGGA,0.197
21,ATACAGAC,0.119
22,ATAGAGAC,-0.0562
23,GAGATAAC,0.0722
24,GTAGATCA,0.0539
25,GTAAGTAA,0.12

row,Sequence,PBM E-score
1,CGAGTAGC,-0.154
2,ATACAACA,0.0913
3,GTAGGCTA,-0.134
4,AGAGCTCC,-0.213
5,ACAAACGG,0.134
6,ACTCACTA,0.0494
7,ATCGGCAG,-0.203
8,CTGTGAAC,-0.066
9,CTTTAGCC,-0.174
10,GGCCCCTA,0.0129
11,ATAGTGGA,-0.0242
12,CATCGTGA,-0.113
13,CGTTCGTC,-0.0789
14,GACAACGA,-0.0883
15,ATCAATAC,0.152
16,GAGATGCC,-0.299
17,CCCTTATC,0.0309
18,TAGGTCGA,0.0436
19,AAGGACGC,0.0453
20,ATGAAAAA,0.259
21,ACCGGTCT,-0.0074
22,AGTTTCAG,-0.198
23,ACGGCTAC,-0.0512
24,CAGTTAAG,0.0515
25,CCGGACCC,0.0912

row,Sequence,PBM E-score
1,AAGCGCGT,-0.206
2,ACATTCGC,-0.0674
3,AAGAGTAG,-0.0365
4,ACCAACGT,-0.0568
5,CGTGAAGC,-0.326
6,TGAGGAAA,0.022
7,AAGTGGGT,0.0704
8,ATAGGGAA,-0.13
9,GGCACTCA,-0.373
10,CAGCATGC,-0.154
11,ATGGCTCG,0.00687
12,CGACAAGA,-0.0244
13,ATCCTTCC,-0.306
14,CTCACTCA,-0.109
15,TGCGCGCA,-0.107
16,AGAACTAC,0.0953
17,CACCGCTG,0.0324
18,GAAGCCAA,-0.174
19,CGCAAAGA,0.13
20,ATTAATGC,-0.0271
21,ACCCGCTC,-0.0534
22,GAATGCAC,-0.0636
23,CACAAGAG,-0.0124
24,ATGGATCG,0.0279
25,GCTGCTCA,-0.151

row,Sequence,PBM E-score
1,CTCGACGC,0.0682
2,TAAGATTA,-0.0109
3,CCAGATGG,0.05
4,CCATCTAC,-0.147
5,ACTATAGC,-0.242
6,CTGTACAC,-0.158
7,ACGTTCAC,-0.226
8,CGGAAATC,-0.0168
9,CCGGACAG,-0.0732
10,CATAGAGA,0.0389
11,CAATTACA,-0.042
12,ACCACCGC,0.147
13,AATGGCAA,0.125
14,AGACGCTA,-0.167
15,CCCGGAAG,0.154
16,CCCGCCTC,-0.0685
17,AGGTCACG,0.406
18,GGTAGGAC,-0.00322
19,ATAGCGGC,-0.116
